# Measurements: the supplement of paper PMC3334620
# In all, about 33,000 sequences were measured (“E-score (-0.5 to 0.5)”: median about -0.011, highest 2% from about 0.28 on). This is one part of the list.
# Target: T1, Gcr1 (UniProt P07261)
# T1 sequence: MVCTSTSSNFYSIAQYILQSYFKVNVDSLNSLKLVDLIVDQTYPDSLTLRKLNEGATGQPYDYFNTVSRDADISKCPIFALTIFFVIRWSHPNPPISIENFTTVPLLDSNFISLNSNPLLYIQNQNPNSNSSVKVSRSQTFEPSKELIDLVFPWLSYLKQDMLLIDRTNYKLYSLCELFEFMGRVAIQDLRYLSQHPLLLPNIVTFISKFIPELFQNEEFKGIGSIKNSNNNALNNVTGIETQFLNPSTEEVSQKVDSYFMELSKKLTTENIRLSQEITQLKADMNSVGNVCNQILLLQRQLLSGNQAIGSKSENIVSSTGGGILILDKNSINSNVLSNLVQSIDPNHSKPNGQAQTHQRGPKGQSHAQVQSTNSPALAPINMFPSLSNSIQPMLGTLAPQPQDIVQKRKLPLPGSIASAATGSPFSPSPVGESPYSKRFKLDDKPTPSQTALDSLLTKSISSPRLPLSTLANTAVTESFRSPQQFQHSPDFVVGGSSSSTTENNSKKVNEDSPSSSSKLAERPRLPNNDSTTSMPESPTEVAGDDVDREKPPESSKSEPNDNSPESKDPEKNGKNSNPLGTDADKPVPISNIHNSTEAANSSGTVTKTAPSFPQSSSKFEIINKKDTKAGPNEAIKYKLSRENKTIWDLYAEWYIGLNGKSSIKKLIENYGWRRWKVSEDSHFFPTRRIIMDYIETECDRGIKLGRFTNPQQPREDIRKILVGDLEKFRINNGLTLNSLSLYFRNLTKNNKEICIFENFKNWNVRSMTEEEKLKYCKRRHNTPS
# Test: PBM E-score (8-mer binding enrichment) (E-score (-0.5 to 0.5)); higher = stronger / more preferred TF binding; most listed sequences are background and not binding sites
# Settings: protein concentration: 100 nM; construct: GST-full length
# In short: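 Yeast transcription factors, full-length or as DNA-binding domains, were expressed with a GST tag using PURExpress in vitro transcription/translation. At about 100-200 nM they were applied to universal all-10-mer Agilent arrays, double-stranded by primer extension on fresh or once-stripped slides. Fluorescent anti-GST detected bound protein, and masliner normalised the scans. E-scores for ungapped eight-base words, pooled with reverse complements, came from the Universal PBM Analysis Suite.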
row,Sequence,PBM E-score
1,TCATACGA,0.111
2,CTTTCATC,-0.0339
3,CCATGAGG,-0.146
4,GCAGAAAA,0.158
5,CGATATTA,0.0468
6,ACCCATGG,0.0263
7,ACGCCCAT,-0.118
8,CACTATTA,0.196
9,CATCAGAC,-0.0224
10,CGTTAGGA,0.0129
11,CGGTTTAA,-0.0718
12,AAGTTGGA,0.261
13,ACATGTGG,0.125
14,GCCTTAAA,-0.0836
15,CTTTAGCA,0.0232
16,CGGAAGAC,0.102
17,CCACTTCA,0.215
18,CACGGTCC,-0.0281
19,CCAACTAA,0.133
20,CCAGAATA,0.283
21,AAAAACTC,-0.0203
22,AACATCTA,0.112
23,ACCGTGCA,-0.296
24,AGCTCCCA,0.221
25,GTAGAGAA,0.0297

row,Sequence,PBM E-score
1,ATTACTGC,-0.0604
2,ATCCCGAT,0.0523
3,GCTAATTA,-0.0265
4,ATTGAAAA,0.0725
5,ACTTCGGC,-0.0369
6,GCGATCGA,-0.276
7,ATCAAACG,-0.0391
8,GTGGTAAA,-0.0819
9,GATTCTGC,-0.0982
10,CAGATTCA,-0.0169
11,ACCCTTCC,-0.106
12,CCACAAAA,0.282
13,ACGTTGCG,0.139
14,AGGAAATC,-0.145
15,CACTATGA,-0.0249
16,ACTATAAT,0.177
17,CCCAACAC,0.0203
18,AAAAATGT,0.0608
19,AGACTCTG,0.0321
20,AAATCATC,-0.0813
21,GCCATAGC,-0.0767
22,CCTGTAAC,0.217
23,AAAGTCGG,-0.122
24,ACGTGTGC,-0.0784
25,GTTAGTGA,-0.275

row,Sequence,PBM E-score
1,AGAATTGA,-0.00502
2,CCAAGCAA,-0.0239
3,AGTTAGAG,0.125
4,CTGTTTCC,0.0835
5,CACGTGCC,-0.121
6,GTTGTATA,0.0484
7,AAGTAGCT,0.208
8,AAGAGGCA,0.157
9,AATGATCC,0.0954
10,AGAACAAG,-0.0582
11,GACAGCGC,-0.234
12,CCTTGCCG,-0.204
13,AGAAAAAT,-0.0489
14,ACTCGAGG,0.042
15,GGACAATA,-0.0211
16,ATAGCGGA,0.0708
17,CTAGCTTA,-0.172
18,AGCGGAAC,0.108
19,AACGCCGA,-0.0262
20,CTGCGACC,0.0296
21,AGCAGTGG,0.0343
22,AGGTCTGA,-0.237
23,TTATCCAA,0.0882
24,GACGGAAC,-0.0501
25,CACACTCG,-0.172

row,Sequence,PBM E-score
1,CAGCTGAC,-0.2
2,ACGGCAGT,-0.199
3,CGTTGTGC,-0.114
4,AAGGCGAC,0.0948
5,CTATCGGC,-0.00376
6,GAGATATA,0.108
7,ATTCCTTC,0.0393
8,ATCCACAA,0.187
9,CACGTCGC,0.0612
10,GCAGGAGC,0.00885
11,CCAAACAA,0.213
12,ACACCATG,0.0145
13,GGAAACAA,0.0444
14,AATACGGC,-0.152
15,AGTTGTGA,0.0449
16,ACGAATAC,0.189
17,CGAGCGTC,0.195
18,CCTTCGAA,0.00266
19,CCCGGCTC,0.08
20,AGACTCTA,-0.0553
21,CCCCTGTA,0.284
22,AACAATCC,-0.0423
23,CAATCAAA,0.0122
24,ACACTAAT,-0.022
25,CGGCTGTC,-0.136

row,Sequence,PBM E-score
1,TAGATTAA,-0.13
2,GATCAGAC,-0.0174
3,AAGCCTCG,-0.128
4,CCTTGTAA,0.137
5,CCGCCCGC,-0.0787
6,ATTATTGC,-0.0143
7,GGGTCTTA,0.0592
8,CACGGCAC,0.15
9,ACAATCAG,-0.12
10,CACTTAAC,-0.0345
11,ACCTCCGT,-0.158
12,GTACGTTA,-0.16
13,ATTATAAT,0.212
14,CTTGTGGC,0.0758
15,GTTTCGTA,0.0977
16,CTTCCGAC,-0.00712
17,GGGGCCCC,0.182
18,CCAGAAAC,0.269
19,AGTCTAAA,-0.159
20,CTTATACC,-0.0274
21,ACGCCAGT,0.137
22,ACCAACTC,0.106
23,GAAGCAAA,-0.11
24,AAGCGGCA,0.0641
25,AAGTTGCA,0.0286

row,Sequence,PBM E-score
1,CTCGAGAC,0.0137
2,ATCAACTC,-0.144
3,TGTACGAA,-0.0883
4,CCGCGCGA,-0.196
5,GTTATATA,-0.0408
6,AACCCAAG,-0.0529
7,CAGTAGGC,0.0563
8,AGTACGAT,0.0999
9,CGGGGCGA,-0.101
10,CCAGTAAC,0.205
11,AACGCCTC,-0.0454
12,GGTGTACA,-0.124
13,CTAAAGTA,-0.0382
14,AGAATGGA,0.0185
15,CTTCCCCA,0.141
16,CCAATTTA,0.0335
17,AGCCTGCA,-0.0383
18,CTATATAG,0.0489
19,ATTGCCGA,-0.127
20,GCGTGTGA,-0.0466
21,TTCATGAA,0.169
22,AACGACCT,0.00615
23,CATTGCGG,-0.0547
24,CTGTGTGA,-0.0438
25,CAGGGGCG,-0.016

row,Sequence,PBM E-score
1,ATCGCAAG,-0.138
2,ACCCGTAG,0.101
3,ACAACCTC,-0.144
4,CGCTTATC,-0.159
5,TGCCGGCA,0.0322
6,CATGGGGG,-0.186
7,GCATCCCA,0.309
8,GGTTGGTA,-0.152
9,AAAGCAGG,0.0327
10,GGTCTCTA,-0.154
11,AGCATAGC,-0.197
12,CGCTACCG,0.0476
13,AGCGATCA,0.0825
14,GGAGTAAC,-0.116
15,CAGCGCGA,-0.0776
16,ACTTCTTA,0.104
17,TACTGAGA,-0.0843
18,AAGTTCCG,0.0935
19,GTGCAGGA,0.0287
20,AAACGGGA,0.145
21,AAAAATCG,0.0488
22,AAGCTCCT,-0.0172
